{"source": "paper PMC5973619", "about": "“Differential incorporation of SUN-domain proteins into LINC complexes is coupled to gene expression” (PLoS ONE, 2018)", "proteins": {"B1": {"name": "Sun1 (natural protein)", "chain": "not shown", "notes": "Sun1, SUN-domain protein of the inner nuclear membrane, endogenous in HeLa cells; also called endogenous Sun1; source: endogenous, HeLa lysate"}}, "molecular_target": "the molecule itself", "test": "non-reducing SDS-PAGE; HeLa cells lysed in RIPA, SDS-PAGE loading buffer lacking β-mercaptoethanol, no fixative; blot for Sun1 and Sun2", "data": [{"protein": "B1", "values": [{"measurement": "stoichiometry N", "result": "~3"}]}]}
